Changes are numbered by the printed parent chain. The list shows a part of the results.
T1: UNK ZnF1-6 (called full-length) (human, UniProt Q9C0B0 30-357)
T1 sequence: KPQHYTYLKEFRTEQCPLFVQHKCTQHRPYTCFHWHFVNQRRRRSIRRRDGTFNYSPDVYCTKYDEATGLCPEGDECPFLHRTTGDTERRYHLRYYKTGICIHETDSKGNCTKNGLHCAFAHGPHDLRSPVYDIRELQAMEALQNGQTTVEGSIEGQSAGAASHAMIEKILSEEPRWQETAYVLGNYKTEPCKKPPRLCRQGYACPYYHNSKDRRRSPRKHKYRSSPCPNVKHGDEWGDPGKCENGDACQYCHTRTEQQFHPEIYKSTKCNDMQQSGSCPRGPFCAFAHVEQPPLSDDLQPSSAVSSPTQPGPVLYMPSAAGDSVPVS

B1: ENSG00000107863:be:win_3151|CDS|ENSG00000107863|bound_else_gene|NA|bound_elsewhere_windowed (ssRNA)
RNA: GGGAGUUCUACAGUCCGACGAUCAGGGAUCUAAUUAGUCGAAGAAUAAAAGAAUACAACAAUCUGAUGAGCAAAGCAGAACAGUUGCCAAAAACACCUCGCCAGAGUCUCAGCAUCAGGCAAACUUUGCUUGGUGCUAAAUCACAACAGAGGAUUGAGCAUCA
B2: chr6:106663037:106663138:+|CDS|ENSG00000130348|msi1|FALSE|unique (ssRNA)
RNA: GGGAGUUCUACAGUCCGACGAUCAGCACAGAAAGUGAGACGCCUCAUUGCUAAUGACUUUGUAAAUGCUUUUAACUCUGGAGUAGAUGUCUUGCUAACUCCCACCACCUUGAGUGAGGCAGUACCAUACUUGGAGUUCAUCAACAACAGAGGAUUGAGCAUCA
B3: chr7:44121865:44121972:-|CDS|ENSG00000106628|unk|total|mutant (ssRNA)
RNA: GGGAGUUCUACAGUCCGACGAUCGUGCCAGUGGCAACCUACACCAACUCCUCACAACCCUUCCGGCCCGGAGAGCGCAGCUUCCGCCGGCAGUAUGCCCACAUUUAUGCCACCCGCCUCAUCCAAAUGAGACCCUUCCUGGAGCAACAGAGGAUUGAGCAUCA
B4: chr8:93922960:93923061:+|CDS|ENSG00000164951|msi1|total|mutant (ssRNA)
RNA: GGGAGUUCUACAGUCCGACGAUCCGGCUCAUGGUCAGCAGUCACGCUGUCUAAUGACCACAAUGCUCAAAAUGAAAGAGAACCCGAACGGCUGAAAUUGGAACAUCCAAAGAGUGAGGCCAAGAGUGUCGUGAAACAGGAUCGCAACAGAGGAUUGAGCAUCA
B5: chr15:50499066:50499164:+|CDS_3pUTR|ENSG00000138592|msi1_unk|total|mutant (ssRNA)
RNA: GGGAGUUCUACAGUCCGACGAUCUACUUCAUUGGGACCACGAGUAACUGAUGCCGCCACAUAAGGAGACACCGGUUAUAAACCCGUUAUCUUUUAAAAGGCUCAGCAACACAACUCUUGAAAUGCUUAUCAGGAUAAUGGCCGCAACAGAGGAUUGAGCAUCA
B6: chr1:213241816:213241921:+|CDS|ENSG00000136643|unk|total|mutant (ssRNA)
RNA: GGGAGUUCUACAGUCCGACGAUCGAGAAACACUAUGCACAGGAGGAUCCCAGGAUGUUAUUUGCCGCAGCUGUUGAUCACCGCCGUUCAGGAGAUAUGUCUUUGUUACCCAGCUCAGAUCCUAAGUUUCAAGGACUUGGAGUGCAACAGAGGAUUGAGCAUCA
B7: chr13:19993219:19993350:+|CDS|ENSG00000121741|unk|FALSE|unique (ssRNA)
RNA: GGGAGUUCUACAGUCCGACGAUCUGAUGAUGAUGUUGUUUUUAUCGAACCUGUACAACCUCCCCCACCUUCUGUACCAGUGGUAGCUGAUCAAAGAACCAUAACAUUUACAUCAUCAAAAAAUGAAGAACUACAAGGAAAUGACAACAGAGGAUUGAGCAUCA
B8: chr11:111497102:111497409:-|CDS|ENSG00000137707|control|control|control (ssRNA)
RNA: GGGAGUUCUACAGUCCGACGAUCGCCGUUAGUAGAGCCUCAUCAGACGUUUCCUCUGGCACUUCCUGCGAUGAAGAAAGUUGUAGCAAGGAACCUCGUGUCAUUCCUAAAGUCAGCAAUCCGAAGAGUAUUUAUCAGGUCAAGCAACAGAGGAUUGAGCAUCA
B9: chr6:89084018:89084151:+|CDS|ENSG00000146278|unk|total|mutant (ssRNA)
RNA: GGGAGUUCUACAGUCCGACGAUCACUGAAGUGAGCCAAAAGGAAAAUUAUGCUGGGGCAAAGUUCCGUGAUCCACCUUCUCCCCGUGUUCUUCCAAAGCCUCCCCGUCACUGGAUGGGAAGCACUGUUGAAAAUUCCAACCAACAACAGAGGAUUGAGCAUCA
B10: chr20:45898604:45898705:+|3pUTR|ENSG00000064601|unk|FALSE|unique (ssRNA)
RNA: GGGAGUUCUACAGUCCGACGAUCAGAGCCCUGUACAUCCCAGACUGGGCCCAGGGUCUCCCAUAGACAGCCUGGGGGCAAGUUAGCACUUUAUUCCCGCAGCAGUUCCUGAAUGGGGUGGCCUGGCCCCUUCUCUGCUUAAAGCAACAGAGGAUUGAGCAUCA
B11: chr6:106663037:106663138:+|CDS|ENSG00000130348|msi1|total|mutant (ssRNA)
RNA: B2 RNA with U83C, A84C
B12: chr10:128098466:128098636:-|3pUTR|ENSG00000148773|msi1|total|mutant (ssRNA)
RNA: GGGAGUUCUACAGUCCGACGAUCUCCUUUCCUUUCUGAAAAUAAAGUUUUGUGCUUUGGAGAAUGACUCGUGAGCACAUCUUCCGGGACCAAGAGUGACUUUCUGUAAGGAGUGACUCGUGGCUUGCCUUGGUCUCUUGGGAACAACAGAGGAUUGAGCAUCA
B13: chr2:20282997:20283108:-|CDS|ENSG00000055917|unk|total|mutant (ssRNA)
RNA: GGGAGUUCUACAGUCCGACGAUCACUAAUCUGCAAUCUAAUUCAUUUUAUGGAAGCAGUUCUUUGACUAACCGCUCCCAGAGCCGUUCUUUAUUUUCUCAUGGACCUGGUCAACCUGGAAGUACAUCUCUUGGCUUUGGAAGUCAACAGAGGAUUGAGCAUCA
B14: chr9:96818597:96818698:-|CDS|ENSG00000196597|unk|total|mutant (ssRNA)
RNA: GGGAGUUCUACAGUCCGACGAUCGGAGAAACCAUUCGAAUGUCAUGAAUGUGGGAAAUCUUUUAACUAUAAGUCAAUCCUCACCGUGCAUCAGAGAACUCACACAGGGGAGAAACCUUUUGAAUGUAAUGAAUGCGGGAAAUCCAACAGAGGAUUGAGCAUCA

molecular target: T1, UNK ZnF1-6 (called full-length); assay: nsRBNS (natural sequence RNA bind-n-seq); RBNS binding buffer (assumed for nsRBNS): 25 mM Tris pH 7.5, 150 mM KCl, 3 mM MgCl2, 0.01% Triton X-100, 500 ug/ml BSA, 20 U/ml SUPERase-In, 4 C; UNK is unkempt and MSI1 is Musashi-1; names of the RNAs are library labels; protein concentration not given here; high values mean tight binding

Row | Binder | binding signal [enrichment R]
1 | B1 | 0.84
2 | B2 | 0.484
3 | B3 | 0.852
4 | B4 | 0.635
5 | B5 | 0.416
6 | B6 | 0.721
7 | B7 | 0.421
8 | B8 | 0.792
9 | B9 | 0.44
10 | B10 | 1.55
11 | B11 | 0.571
12 | B12 | 0.483
13 | B13 | 0.485
14 | B14 | 0.633

From paper PMC12136788
